From publication PMC6131546, “Interaction of TBC1D9B with Mammalian ATG8 Homologues Regulates Autophagic Flux” (Scientific Reports, 2018) come the findings set out here.

This experiment deals with T1, recombinant GST-ATG8L (human, UniProt Q9H0R8).
T1 construct: human ATG8L (GABARAPL1), cloned into pGEX-6p; also called GST-fused ATG8L; GABARAPL1; source: E. coli BL21, purified (glutathione-sepharose)
Nature of the experiment: pull-down; GST fusion on glutathione-sepharose beads, incubated with recombinant FLAG-TBC1D9B or His-LC3B at 4 °C for 1 hour; 20 mM Tris pH 7.4, 0.1 mM EDTA, 100 mM NaCl; SDS-PAGE with Coomassie Brilliant Blue. The settings on record: both partners purified.

T1 sequence (Q9H0R8 whole entry, the tested form may be a part): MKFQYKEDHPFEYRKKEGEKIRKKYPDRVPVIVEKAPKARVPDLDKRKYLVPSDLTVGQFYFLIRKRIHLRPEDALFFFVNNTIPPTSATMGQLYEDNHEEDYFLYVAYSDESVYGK

B1: FLAG-TBC1D9Bα from a stable HEK293 cell line (natural protein)
chain: not shown
notes: human TBC1D9B, alpha splice form, in pcDNA3.1-FLAG; also called FLAG-tagged recombinant TBC1D9B; source: purified (anti-FLAG M2 beads, eluted with glycine HCl) for the pull-down; in lysate for the co-IP
Regarding B1, the binding result is reported as “binds”.
